Test results reported in PubChem BioAssay AID894 (National Center for Advancing Translational Sciences (NCATS), 2007).
“And” between values parts separate entries of the source, which are not always exact repeats. Equal values may be shown once. Screen size: about 150,000 compounds; about 6,500 (4.3%) were called active. Inconclusive means that the source gave no clear call. Such entries were picked first, then a sample of the others. The call rests on the fitted dose curve; in most records, active means well fitted inhibition curve with a large enough effect (not every such curve was filed as active); inconclusive means small, poorly fitted or top-dose-only effect, or another doubt; inactive means no such curve, though single readings can be large or run the other way. A potency beside an inconclusive call is a rough fit, not a confirmed value.

Each molecule was assayed against 15-hydroxyprostaglandin dehydrogenase [NAD(+)] (Homo sapiens) (UniProt P15428) (assay: qHTS Assay for Inhibitors of HPGD (15-Hydroxyprostaglandin Dehydrogenase)). Conditions: purified HPGD, NADH fluorescence kinetic, PGE2 substrate; activity change, negative = inhibition: active compounds read low.
UniProt P15428, sequence (P15428 whole entry, looked up): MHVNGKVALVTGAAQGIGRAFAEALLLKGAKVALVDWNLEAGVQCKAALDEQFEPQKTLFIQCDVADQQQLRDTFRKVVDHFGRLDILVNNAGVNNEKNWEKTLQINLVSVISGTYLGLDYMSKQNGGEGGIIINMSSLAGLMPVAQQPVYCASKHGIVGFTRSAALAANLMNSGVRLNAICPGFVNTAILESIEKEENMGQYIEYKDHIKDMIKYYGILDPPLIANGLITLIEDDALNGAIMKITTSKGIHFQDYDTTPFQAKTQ
Summary of the method: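 20 nM HPGD preincubated 15 min at room temperature with compound in 50 mM Tris-HCl pH 8, 0.01% Tween 20. Started with 1 mM NAD+ and 30 uM prostaglandin E2; NADH fluorescence (360/450 nm) read 5 times over 30-s intervals, last minus first.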
On the % scale 0 is the no-effect control and ±100 the full control effect; potency means the concentration at half of the fitted maximal effect; tags describe the fitted curve by direction and shape.

| SMILES | Potency | activity change, negative = inhibition |
| --- | --- | --- |
| CNS(=O)(=O)c1ccc2c(c1)NC(=O)C1CCCN21 (stereo not given) | inconclusive: 35.5 µM [inhibitor, single point] | – |
| CCCC(=O)Nc1ccc(Oc2ccc(NC(=O)CCC)cc2)cc1 | – | inactive: -9.34% |
| COc1ccc(C(=O)/C=C/Nc2ccc(S(=O)(=O)Nc3cccc(C(C)=O)c3)cc2)cc1 | inconclusive: 25.1 µM [inhibitor, partial curve, poor fit] | – |
| CCCOc1ccc(/C(O)=C2/C(=O)C(=O)N(CCCN3CCOCC3)C2c2ccncc2)cc1 (stereo not given) | inconclusive: 12.6 µM [inhibitor, partial curve] | – |
| CC(C)(C)c1ccc(S(=O)(=O)/C=C\C#N)cc1 | active: 2.82 µM | – |
| Cc1ccc(/C=N/NC(=O)Cc2c[nH]c3ccccc23)c(C)c1 | – | inactive: -8.77% |
| COC(=O)c1cc2ccccc2c(-c2c(OC)c(C(=O)OC)cc3ccccc23)c1OC | inconclusive: 35.5 µM [inhibitor, partial curve] | – |
| CCc1c(C(=O)NC2CCCC2)csc1C | active: 14.1 µM | – |
| COc1ccc(-c2nc(C#N)c(N3CCC(C(N)=O)CC3)o2)cc1 | inconclusive: 25.1 µM [inhibitor, partial curve] | – |
| CSc1ccc(Cl)c(C(=O)NC2CCCC2)c1 | active: 15.8 µM | – |
| CCOc1ccc(OCc2ccc(C(=O)Nc3ccc(Cl)cn3)o2)cc1 | inconclusive: 28.2 µM [inhibitor, partial curve] | – |
| CC[N+](CC)(CC)CCOc1ccc(/C=C\c2ccccc2)cc1 | inconclusive: 28.2 µM [inhibitor, partial curve] | – |
| CN(CCOC(=O)c1ccco1)Cc1ccccc1 | – | inactive: -13.9% |
| COc1ccc(-c2oc(NC(=O)CSc3nncn3C)c(C#N)c2-c2ccc(OC)cc2)cc1 | inconclusive: 15.8 µM [inhibitor, partial curve] | – |
| COC(=O)c1cn(Cc2cccc(C)c2)nn1 | – | inactive: -7.78% |
| O=c1cc(CSc2nnc(COc3ccccc3)o2)c2ccccc2[nH]1 | inconclusive: 14.1 µM [inhibitor, partial curve] | – |
| CCOC(=O)/C(=C\c1ccc(OC(F)F)cc1)C1=Nn2c(nnc2-c2ccc(Cl)cc2)SC1 | active: 14.1 µM | – |
| O=C(c1cnccn1)N1CCC2(CCN(Cc3ccccc3)CC2)CC1 | – | inactive: -2.2% |
| Cc1ccccc1OCC(O)Cn1c(NCc2ccccc2)nc2c1c(=O)[nH]c(=O)n2C (stereo not given) | – | inactive: -0.782% |
| COc1cc(OC)c(C2=NOC(C(=O)O)C2)cc1Cl (stereo not given) | inconclusive: 39.8 µM [inhibitor, partial curve] | – |
| CC(=O)Nc1ccc(N2CCc3c(C)c(C#N)c4nc5ccccc5n4c32)cc1 | – | inactive: -9.17% |
| NC(=O)c1ccsc1NC(=O)c1ccc(S(=O)(=O)N2CCCc3ccccc32)cc1 | inconclusive: 35.5 µM [inhibitor, single point] | – |
| O=C(CSc1nc2cccnc2n1Cc1ccccc1)NC1CCCCC1 | inconclusive: 25.1 µM [inhibitor, single point] | – |
| C=CC(C1=CC(=O)C(OC)=CC1=O)c1ccccc1 (stereo not given) | inconclusive: 31.6 µM [inhibitor, single point] | – |

| SMILES | Potency | activity change, negative = inhibition |
| --- | --- | --- |
| COc1ccccc1NC(c1cccnc1)c1ccc2cccnc2c1O (stereo not given) | – | inactive: -15.3% |
| Cn1c(=O)c(C(=O)COC(=O)c2cc(-c3ccccc3)nc3ccccc23)c(N)n(Cc2ccccc2)c1=O | inconclusive: 35.5 µM [inhibitor, single point] and inconclusive: 28.2 µM [inhibitor, partial curve] | – |
| O=C(CCCSc1ccccc1)Nc1nc(-c2ccccn2)cs1 | inconclusive: 39.8 µM [inhibitor, single point] | – |
| CCOC(=O)C(C(=O)OCC)c1cc(Br)c2noc3c2c1C(=O)c1ccccc1-3 | inconclusive: 14.1 µM [inhibitor, partial curve] | – |
| CCn1cc(C(=O)N2CCc3ccccc32)c(=O)c2cc(S(=O)(=O)N3CC(C)CC(C)C3)ccc21 (stereo not given) | inconclusive: 5.62 µM [inhibitor, partial curve] | – |
| COc1ccc(-c2csc(NC(=O)c3ccc(S(=O)(=O)N4CCc5ccccc5C4)cc3)n2)c(OC)c1 | – | inactive: -25.4% |
| O=C1/C(=C/c2cccs2)COc2ccccc21 | active: 25.1 µM | – |
| [O-]/C(=C(\C(=S)Nc1cccc2ccccc12)[n+]1ccccc1)c1ccc(Cl)s1 | inconclusive: 15.8 µM [inhibitor, partial curve] | – |
| Cc1nc(N2CCOCC2)c2nc(-c3ccccc3)n(CCN3CCCCC3)c2n1 | inconclusive: 7.08 µM [inhibitor, full curve] | – |
| CCc1c(C)c2ccc(OCC(=O)OC)cc2oc1=O | inconclusive: 31.6 µM [inhibitor, partial curve] | – |
| CCc1cc2c(=O)c(-c3nc4ccccc4n3C)coc2c(CN2CCOCC2)c1O | inconclusive: 15.8 µM [inhibitor, partial curve] | – |
| COc1ccc(C2CC(c3ccccc3)=NN2C(=O)COC(=O)c2cnc(Cl)c(Cl)c2)cc1 (stereo not given) | inconclusive: 20 µM [inhibitor, partial curve] | – |
| Fc1ccccc1Nc1nc2c(s1)CCc1ccccc1-2 | active: 22.4 µM | – |
| O=C(NC(=S)Nc1cccc(Cl)c1N1CCCCC1)c1cccs1 | – | inactive: -4.47% |
| Cc1c(C(=O)Nc2nc3ccccc3[nH]2)oc2c(Cl)cccc12 | inconclusive: 20 µM [inhibitor, partial curve] | – |
| COc1ccc(NC(=O)C(C)N2c3cccc4cccc(c34)S2(=O)=O)cc1 (stereo not given) | inconclusive: 0.141 µM [inhibitor, full curve] | – |
| COc1cc(/C=C/C(=O)OCC(=O)NCC2CCCO2)ccc1OCC#N (stereo not given) | inconclusive: 25.1 µM [inhibitor, partial curve] | – |
| CC(C)OC(=O)c1c(NC(=O)c2ccco2)sc2c1CCCC2 | inconclusive: 25.1 µM [inhibitor, partial curve] | – |
| COc1ccc(S(=O)(=O)/N=C2/NC(=O)/C(=C\c3ccco3)S2)cc1 | active: 28.2 µM | – |
| C#CCSc1n[nH]c(-c2ccco2)n1 | inconclusive: 3.16 µM [inhibitor, partial curve] | – |
| Cn1c(=O)c2cc(S(=O)(=O)N3CCC(c4ccccc4)CC3)ccc2n(C)c1=O | – | inactive: -12.1% |
| O=C(N/N=C/c1ccc(N2CCCCC2)o1)C(O)(c1ccccc1)c1ccccc1 | active: 31.6 µM | – |
| COc1ccc(CNC(=O)c2ccc(C)o2)cc1 | active: 3.55 µM | – |
| Cc1cccn2c(=O)c3cc(C(=O)NC4CCCC4)c(=N)n(C4CCCC4)c3nc12 | inconclusive: 31.6 µM [inhibitor, partial curve] | – |

| SMILES | Potency | activity change, negative = inhibition |
| --- | --- | --- |
| CCOC(=O)c1cnn(-c2nc(-c3ccccc3)cs2)c1C(F)(F)F | inconclusive: 28.2 µM [inhibitor, partial curve] | – |
| CC(=O)NC1C(Oc2ccccc2C)OC2COC(c3ccco3)OC2C1O (stereo not given) | – | inactive: -2.77% |
| CCCCCCOc1ccc(C(CC(=O)O)C(N)=O)cc1 (stereo not given) | – | inactive: -7.71% |
| Clc1ccc(N=c2ssnc2Cl)cc1 | active: 1.78 µM | – |
| CCCc1cc(=O)[nH]c(SCC(=O)N2N=C(c3ccc(Cl)cc3)CC2c2ccco2)n1 (stereo not given) | inconclusive: 31.6 µM [inhibitor, partial curve] | – |
| Cc1onc(-c2ccccc2)c1C(=O)N1CCOCC1 | – | inactive: 0.967% |
| OC[C@@H]1[C@@H](c2ccc(F)cc2)C(c2ccccc2)=NN1c1ccccc1 | inconclusive: 31.6 µM [inhibitor, partial curve] | – |
| Oc1ccc2n[nH]nc2c1 | inconclusive: 39.8 µM [inhibitor, single point] | – |
| COc1ccc(NS(=O)(=O)c2cccc(C(=O)N/N=C(\C)c3ccncc3)c2)cc1 | – | inactive: -16.1% |
| CCOc1cccc(C(=O)Nc2nnc(-c3cccs3)s2)c1 | inconclusive: 22.4 µM [inhibitor, partial curve] | – |
| C/C(=N/Nc1cc(-c2ccccc2)nc(-c2ccccc2)n1)c1ccc(O)cc1 | inconclusive: 31.6 µM [inhibitor, partial curve] | – |
| CC(=O)C1=C(C)N(Cc2ccco2)C(=O)N[C@@H]1c1ccccc1 | – | inactive: -6.26% |
| Cc1cc(C)c(-c2csc(Cc3nc(-c4cc5ccccc5oc4=O)cs3)n2)cc1C | inconclusive: 31.6 µM [inhibitor, partial curve] | – |
| O=C(CSCc1c(Cl)cccc1Cl)NCC1CCCO1 (stereo not given) | active: 5.01 µM | – |
| Cc1ccccc1N(CC(=O)N/N=C/c1cc(C)n(-c2ccccc2C)c1C)S(C)(=O)=O | inconclusive: 39.8 µM [inhibitor, single point] | – |
| Cc1cc(C(=O)c2ccccc2)c(NC(=O)CCl)s1 | inconclusive: 28.2 µM [inhibitor, single point] | – |
| Cc1nn(CCC(=O)O)c2nc(-c3cccnc3)cc(C(F)(F)F)c12 | inconclusive: 25.1 µM [inhibitor, partial curve] | – |
| CC(C)c1ccc(/C=C/C(=O)NCCC2=CCCCC2)cc1 | – | inactive: -24.9% |
| Cc1nn(-c2ccccc2Cl)c2sc(C(=O)Nc3nnc(C4CC4)s3)cc12 | inconclusive: 15.8 µM [inhibitor, partial curve] | – |
| COc1ccc(CC(=O)N2CCN(c3ccc(C4=NNC(=O)CC4C)cc3)CC2)cc1 (stereo not given) | inconclusive: 31.6 µM [inhibitor, partial curve] | – |
| COc1cc(C)ccc1OCCOCCOc1cc(C)c(C)cc1Br | – | inactive: -24.4% |
| CCCOC(=O)c1c(NC(=O)C2CCCO2)sc(C(=O)OC)c1C (stereo not given) | active: 10 µM | – |
